Measurements reported in paper PMC4336329 (PLoS ONE, 2015).
In all, about 310,000 compounds went through this assay and about 14,000 (4.5%) showed an effect of 50% or more. The effect is printed as a negative number. Some of the results follow.

target: human ether-à-go-go-related gene (hERG) potassium channel (human, UniProt Q12809); assay: primary screen, population patch clamp on CHO cells stably expressing hERG
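Further: peak tail current of the secondary pulse compared with the same well before compound.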

Sequence of human ether-à-go-go-related gene (hERG) potassium channel (Q12809 whole entry, looked up): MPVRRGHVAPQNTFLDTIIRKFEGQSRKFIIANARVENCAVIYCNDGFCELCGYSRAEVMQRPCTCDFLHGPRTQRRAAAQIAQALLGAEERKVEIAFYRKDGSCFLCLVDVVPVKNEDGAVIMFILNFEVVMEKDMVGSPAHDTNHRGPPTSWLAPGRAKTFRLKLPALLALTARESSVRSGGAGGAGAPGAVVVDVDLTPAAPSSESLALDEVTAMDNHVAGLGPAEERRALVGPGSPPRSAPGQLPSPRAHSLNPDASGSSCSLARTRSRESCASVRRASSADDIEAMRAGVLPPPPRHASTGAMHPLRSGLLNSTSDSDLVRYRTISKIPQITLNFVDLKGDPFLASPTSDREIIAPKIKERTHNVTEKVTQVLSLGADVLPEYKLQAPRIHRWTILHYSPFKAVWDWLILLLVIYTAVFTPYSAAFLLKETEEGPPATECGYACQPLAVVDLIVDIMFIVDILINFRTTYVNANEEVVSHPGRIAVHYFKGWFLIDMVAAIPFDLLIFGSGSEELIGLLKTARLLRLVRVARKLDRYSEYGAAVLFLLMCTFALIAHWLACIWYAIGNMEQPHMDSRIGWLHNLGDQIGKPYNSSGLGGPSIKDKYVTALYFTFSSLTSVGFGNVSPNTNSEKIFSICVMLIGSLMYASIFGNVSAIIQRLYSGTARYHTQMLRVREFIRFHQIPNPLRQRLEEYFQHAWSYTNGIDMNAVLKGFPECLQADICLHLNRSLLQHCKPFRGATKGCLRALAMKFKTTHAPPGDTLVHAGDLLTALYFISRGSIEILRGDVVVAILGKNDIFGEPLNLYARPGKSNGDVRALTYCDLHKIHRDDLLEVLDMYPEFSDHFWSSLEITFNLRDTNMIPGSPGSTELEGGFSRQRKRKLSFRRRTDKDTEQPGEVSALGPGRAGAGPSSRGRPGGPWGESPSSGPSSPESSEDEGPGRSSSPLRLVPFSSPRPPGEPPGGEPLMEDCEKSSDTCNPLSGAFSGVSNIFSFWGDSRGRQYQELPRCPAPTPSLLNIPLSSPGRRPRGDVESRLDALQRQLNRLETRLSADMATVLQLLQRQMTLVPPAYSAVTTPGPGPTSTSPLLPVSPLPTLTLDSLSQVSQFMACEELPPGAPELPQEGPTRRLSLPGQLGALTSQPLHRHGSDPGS

First: Cl.N=c1c2c(n(Cc3cccc(Cl)c3)c3c1CCC3)CCCC2
Second: c1ccc2nc3c(cc2c1)CCCCCC3
The “hERG current change (%, negative = inhibition) at 10uM” value of the first is higher: -0.0862% for the first, -11.8% for the second.

Compared with CCOC(=O)N1CCN(C(=O)CSCC(=O)N=c2sc3ccccc3n2C)CC1, O=C(CSc1ncnc2nc[nH]c12)N1CCN(c2ccccc2)CC1 is higher in “hERG current change (%, negative = inhibition) at 10uM” value: -17.6% for the first, -8.74% for the second.

Compared with COc1ccc(CCNC(=O)CS(=O)(=O)c2cn(CC(=O)N3CCCC3)c3ccccc23)cc1OC, COc1ccc(NC(=O)CN2CCCCCC2)cc1OC is lower in “hERG current change (%, negative = inhibition) at 10uM” value: 8.22% for the first, 3.79% for the second.

Compared with O=C(CO/N=C/c1ccc(OC(F)F)cc1)NCc1ccc(F)cc1, CCCCOc1ccc(/C=N/NC(=O)c2csc(C)c2C)cc1 is higher in “hERG current change (%, negative = inhibition) at 10uM” value: -79.2% for the first, 16.8% for the second.

Compared with CCOC(=O)NN1C(=O)c2ccccc2NC1c1ccccn1 (stereo not shown), COc1ccccc1NC(=O)C1=C(C)Nc2nnnn2C1c1ccccn1 (stereo not shown) is higher in “hERG current change (%, negative = inhibition) at 10uM” value: 8.02% for the first, 14.2% for the second.

Compared with Cc1ccc(C)c(S(=O)(=O)N2CCC3(CC2)OCCO3)c1, O=C1Nc2cc(C(=O)N3CCOCC3)ccc2SC1N1CCOCC1 (stereo not shown) is higher in “hERG current change (%, negative = inhibition) at 10uM” value: -9.48% for the first, 7.46% for the second.

Compared with CC(C)CCNC(=O)NC(=O)COc1c(F)c(F)cc(F)c1F, CNCCCOc1ccc(C)cc1Br.O=C(O)C(=O)O is lower in “hERG current change (%, negative = inhibition) at 10uM” value: -7.4% for the first, -10.9% for the second.

Going from CCCNc1nc(=S)n(-c2ccccc2)c(C)c1C(C)=O to CCOC(=O)Cc1nn(CC)c(=O)c2ccccc12, the “hERG current change (%, negative = inhibition) at 10uM” value rises from 20.5% to 27.5%.

Going from CC1CN(CC(=O)Nc2ccc(S(N)(=O)=O)cc2)CC(C)O1 (stereo not shown) to CCc1ccc(NC(=O)CCS(=O)(=O)c2ccc(Br)cc2)cc1, the “hERG current change (%, negative = inhibition) at 10uM” value rises from -52% to 24%.

First: CCc1cc(=O)oc2cc(OCC(=O)N3C[C@H]4C[C@@H](C3)c3cccc(=O)n3C4)c(Cl)cc12
Second: CCOC(=O)Nc1ccc(=O)n(Cc2c(Cl)cccc2Cl)c1
The “hERG current change (%, negative = inhibition) at 10uM” value of the first is higher: -3.61% for the first, -16.8% for the second.

First: CC(=O)c1ccccc1NC(=O)COC(=O)Cc1cccc(C(F)(F)F)c1
Second: O=C(COC(=O)CNS(=O)(=O)c1cccc(Br)c1)Nc1ccccc1Sc1ccccc1
The “hERG current change (%, negative = inhibition) at 10uM” value of the first is lower: -10.3% for the first, 12.3% for the second.

Compared with COCCNC(=S)N(CCc1c(C)[nH]c2ccc(Cl)cc12)Cc1cccs1, COCCN(C(=O)COC(=O)c1sccc1C)c1c(N)n(Cc2ccccc2)c(=O)[nH]c1=O is lower in “hERG current change (%, negative = inhibition) at 10uM” value: 57.7% for the first, 15.4% for the second.

First: COc1ccc(NS(=O)(=O)c2cn(C)cn2)cc1OC
Second: COc1ccc(C2(C)NC(=O)N(CC(=O)NC3CCCC3)C2=O)cc1OC (stereo not shown)
The “hERG current change (%, negative = inhibition) at 10uM” value of the first is lower: 22% for the first, 23.7% for the second.

Compared with O=C(O)CC(c1ccc(OC2CCCC2)cc1)N1C(=O)c2ccccc2C1=O (stereo not shown), COc1ccc(C(CC(=O)O)NC(=O)c2sc3ccccc3c2Cl)cc1 (stereo not shown) is higher in “hERG current change (%, negative = inhibition) at 10uM” value: 11.8% for the first, 15.6% for the second.

Going from O=C(CCn1nc(-c2ccc(Cl)cc2)ccc1=O)N1CCN(c2ccccc2)CC1 to Cc1c(NC(=O)C2CCCN2S(=O)(=O)c2ccc(Cl)cc2)c(=O)n(-c2ccccc2)n1C (stereo not shown), the “hERG current change (%, negative = inhibition) at 10uM” value rises from -45.9% to -1.73%.

Going from Cc1cc(C)c(Cn2ncn(-c3ccc(Br)cc3)c2=O)c(C)c1 to COc1ccc(NC(=O)c2cccc(Cn3cc(Br)c([N+](=O)[O-])n3)c2)c(C)c1, the “hERG current change (%, negative = inhibition) at 10uM” value falls from 19.4% to -72%.

Going from CCc1ccc(/C=C(/C#N)C(N)=S)s1 to N#C/C(=C\c1c(F)cccc1Cl)C(=O)NC1CC1, the “hERG current change (%, negative = inhibition) at 10uM” value falls from 6.05% to -16.5%.

First: Cc1nc(C)c(C(=O)C2=C(O)C(=O)N(CCN3CCOCC3)C2c2cccs2)s1 (stereo not shown)
Second: O=C(NCCCN1CCOCC1)c1ccc2ccccc2c1
The “hERG current change (%, negative = inhibition) at 10uM” value of the first is higher: 5.12% for the first, -2.68% for the second.

First: CN(Cc1nc2ccccc2c(=O)[nH]1)C(=O)c1ccc(S(=O)(=O)N2CCCC2)cc1
Second: O=C(OCC(=O)c1c[nH]c2ccccc12)c1cc(S(=O)(=O)N2CCOCC2)ccc1F
The “hERG current change (%, negative = inhibition) at 10uM” value of the first is lower: -38.8% for the first, -2.91% for the second.

Going from COc1ccc2c(CC(=O)Nc3ccccc3OC)coc2c1 to COc1cc(OC)cc(C(=O)N/N=C/c2ccc(OC)c(COc3ccc4ccccc4c3)c2)c1, the “hERG current change (%, negative = inhibition) at 10uM” value rises from -4.03% to 15.1%.

Going from CC(=O)c1cc(NC(=O)c2ccc(C)cc2)c(=O)oc1C to Cc1ccc(C(=O)C2CCN(CC(=O)Nc3nc(C)cs3)CC2)cc1, the “hERG current change (%, negative = inhibition) at 10uM” value falls from 14.6% to -24.8%.

Going from N#CC[C@H](Cc1ccccc1)N1CCN(Cc2ccccc2)CCC1=O to N#Cc1nc(Cc2ccccc2)oc1NCc1ccccc1, the “hERG current change (%, negative = inhibition) at 10uM” value falls from -24% to -40.5%.

Going from COC(=O)c1cc2sc(Cl)cc2n1Cc1nc(-c2ccccc2)oc1C to CC1Cc2ccccc2N1C(=O)CSc1nnc2c(n1)[nH]c1ccc(F)cc12 (stereo not shown), the “hERG current change (%, negative = inhibition) at 10uM” value rises from 3.5% to 12.6%.

Going from O=C1c2cccc(O)c2C(=O)c2c(O)cc(CO)cc21 to CCCc1cc(C(=O)Nc2cc(C)ccc2O)no1, the “hERG current change (%, negative = inhibition) at 10uM” value falls from 11.2% to -5%.

Compared with Cc1cc(S(=O)(=O)NC2CCCCC2)ccc1OCC(=O)NCc1ccccn1, Cc1ccc(S(=O)(=O)N(CC(=O)NC2CCCC2)c2cccc(C)c2)cc1 is lower in “hERG current change (%, negative = inhibition) at 10uM” value: -13.1% for the first, -43.9% for the second.

Going from CC1=CCC2COC(c3ccc[n+](Cc4ccccc4)c3)C1C2.[Cl-] (stereo not shown) to O=C(/C=C/c1ccccc1Cl)N(Cc1ccccc1)C1CCS(=O)(=O)C1 (stereo not shown), the “hERG current change (%, negative = inhibition) at 10uM” value falls from -7.19% to -7.94%.

Going from CC(C)(C)c1ccccc1NC(=O)CN1C(=O)NC2(CCCC2)C1=O to Cc1[nH]c(C)c(S(=O)(=O)NCc2ccc(Cl)cc2)c1C(=O)N1CCCC1, the “hERG current change (%, negative = inhibition) at 10uM” value falls from 1.01% to -2.62%.

First: Cc1ccc(C)c(NC(=S)N(C2CCCCC2)C(C)c2cccnc2)c1 (stereo not shown)
Second: C=C(C)CCC(C)N1CCC(n2nccc2NC(=O)CCOc2ccccc2)CC1 (stereo not shown)
The “hERG current change (%, negative = inhibition) at 10uM” value of the first is higher: -13.9% for the first, -38.1% for the second.

Compared with O=C(Nc1cnn(C23CC4CC(CC(C4)C2)C3)c1)c1cnn2c(C(F)(F)F)cc(-c3ccco3)nc12, Cc1nn(-c2cccc(Cl)c2)c2nc(C(F)(F)F)[nH]c(=O)c12 is higher in “hERG current change (%, negative = inhibition) at 10uM” value: -3.81% for the first, 25.5% for the second.

First: COCCn1nnnc1C(c1ccccc1OC)N1CCN(c2ccccc2)CC1.Cl (stereo not shown)
Second: Cl.O=C(/C=C/c1cn(-c2ccccc2)nc1-c1cccnc1)NCCN1CCOCC1
The “hERG current change (%, negative = inhibition) at 10uM” value of the first is higher: -4.6% for the first, -5.55% for the second.

Compared with Cc1ccc(S(=O)(=O)N(Cc2ccccc2)C(C)C)cc1, C/C(=N\NS(=O)(=O)c1ccc(C)cc1)c1ccc(C)s1 is higher in “hERG current change (%, negative = inhibition) at 10uM” value: -4.5% for the first, 19.9% for the second.

Going from COc1ccc(C2CC(c3cccs3)=NN2C(=O)CSc2nncs2)cc1OC (stereo not shown) to COc1ccc(-n2nnnc2SCC(=O)Nc2nnc(C)s2)cc1OC, the “hERG current change (%, negative = inhibition) at 10uM” value rises from -43.2% to -8.15%.

Compared with COC(=O)c1ccc(C(=O)OC)c(NC(=S)N2CC(C)CC(C)C2)c1 (stereo not shown), COC(=O)c1cccnc1NC(=S)NC(C)C is higher in “hERG current change (%, negative = inhibition) at 10uM” value: 3.44% for the first, 19.2% for the second.

Compared with O=C(Cc1ccc(Br)cc1)N1CCCC1, CCOC(=O)C1(Cc2ccc(OC)cc2)CCN(C(=O)Cn2cnnn2)CC1 is lower in “hERG current change (%, negative = inhibition) at 10uM” value: 19.3% for the first, -4.37% for the second.

Going from CCOCCCNC(=O)Cn1nc(Cc2ccncc2)c2ccccc2c1=O to COC(=O)c1ccccc1NC(=O)CCCCCn1nnc2ccccc2c1=O, the “hERG current change (%, negative = inhibition) at 10uM” value falls from 5.25% to -4.46%.

Going from NC(=O)CN1N=C(c2cc(Cl)sc2Cl)CSC1=O to CN1CCC/C1=C/C=C1\SC(=S)NC1=O, the “hERG current change (%, negative = inhibition) at 10uM” value rises from -4.87% to 5.38%.

Compared with CCc1ccc(N2CC(C(=O)NCC(C)(C)N3CCOCC3)CC2=O)cc1 (stereo not shown), O=C(Cn1nnc(-c2ccc(CN3CCOCC3)cc2)n1)NC1CCCCC1 is lower in “hERG current change (%, negative = inhibition) at 10uM” value: 5.36% for the first, -12.4% for the second.

Going from CCCC(=O)N(CCN(C(=O)CCC)c1ccccc1)c1ccccc1 to O=C(CN(Cc1ccco1)C(=O)c1cc(=O)[nH]c2ccccc12)Nc1ccccc1Br, the “hERG current change (%, negative = inhibition) at 10uM” value falls from -17.8% to -53.5%.

Going from O=C(O)c1ccc(NC(=O)C2CC=CCC2C(=O)O)cc1 (stereo not shown) to Cc1cc(NS(=O)(=O)c2ccc(NC(=S)NC(=O)c3ccccc3)cc2)no1, the “hERG current change (%, negative = inhibition) at 10uM” value rises from -49.5% to -0.125%.

Compared with O=C(Cc1ccccc1)N/N=C/c1ccc(OC(=O)/C=C\c2ccco2)cc1, O=C(Nc1cccc2ncccc12)C(c1ccccc1)c1ccccc1 is lower in “hERG current change (%, negative = inhibition) at 10uM” value: 8.06% for the first, -20.5% for the second.

First: CCCC(c1nnnn1C(C)(C)CC)N1CCN(C2CCCC2)CC1.Cl (stereo not shown)
Second: CCC1C/C(=C/c2ccco2)C(=O)/C(=C/c2ccco2)C1 (stereo not shown)
The “hERG current change (%, negative = inhibition) at 10uM” value of the first is lower: -35.3% for the first, 4.01% for the second.

First: Cc1cccc(NC(=O)CSCC(=O)Nc2cccc3ncccc23)c1
Second: CCN(CC)c1ccc(NC(=O)c2ccccc2Br)cc1S(=O)(=O)Nc1ccccc1OC
The “hERG current change (%, negative = inhibition) at 10uM” value of the first is higher: 3.27% for the first, 0.614% for the second.

First: COCCN(C(=O)c1ccc(C#N)cc1)c1c(N)n(Cc2ccccc2)c(=O)[nH]c1=O
Second: COc1ccccc1-c1csc(-n2ncc(C#N)c2N)n1
The “hERG current change (%, negative = inhibition) at 10uM” value of the first is lower: 23.4% for the first, 46.6% for the second.

First: O=c1ccc(Cl)cn1Cc1ccccc1F
Second: O=S1(=O)N=C(N2CCc3ccccc3C2)c2ccccc21
The “hERG current change (%, negative = inhibition) at 10uM” value of the first is higher: 5.34% for the first, -39% for the second.
